We go through two molecules from PMC6128693.

No constants are given. Whether binding was seen depends on the method and setting. For part of these data: In cells and extracts the contact can be indirect. Some entries that bind do so weakly or less than the wild type. Sequences can lack the tags named with a protein.

Assay [1] deals with T1, ENY2 (AT3G27100), yeast two-hybrid fusion (Arabidopsis thaliana) (UniProt Q6NQ54).
T1 sequence: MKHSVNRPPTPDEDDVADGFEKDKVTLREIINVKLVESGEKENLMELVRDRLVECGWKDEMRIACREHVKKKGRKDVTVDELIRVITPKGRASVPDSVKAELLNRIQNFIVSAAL
The experiment in a line: two-hybrid; pairwise assays, Matchmaker (Clontech) system; bait and prey empty vectors as negative controls; 3AT chase control for DDA1-SGF11.

For assay [2], the target named is T2, UBP22 (AT5G10790), yeast two-hybrid fusion (Arabidopsis thaliana) (UniProt Q9LEW0).
T2 sequence: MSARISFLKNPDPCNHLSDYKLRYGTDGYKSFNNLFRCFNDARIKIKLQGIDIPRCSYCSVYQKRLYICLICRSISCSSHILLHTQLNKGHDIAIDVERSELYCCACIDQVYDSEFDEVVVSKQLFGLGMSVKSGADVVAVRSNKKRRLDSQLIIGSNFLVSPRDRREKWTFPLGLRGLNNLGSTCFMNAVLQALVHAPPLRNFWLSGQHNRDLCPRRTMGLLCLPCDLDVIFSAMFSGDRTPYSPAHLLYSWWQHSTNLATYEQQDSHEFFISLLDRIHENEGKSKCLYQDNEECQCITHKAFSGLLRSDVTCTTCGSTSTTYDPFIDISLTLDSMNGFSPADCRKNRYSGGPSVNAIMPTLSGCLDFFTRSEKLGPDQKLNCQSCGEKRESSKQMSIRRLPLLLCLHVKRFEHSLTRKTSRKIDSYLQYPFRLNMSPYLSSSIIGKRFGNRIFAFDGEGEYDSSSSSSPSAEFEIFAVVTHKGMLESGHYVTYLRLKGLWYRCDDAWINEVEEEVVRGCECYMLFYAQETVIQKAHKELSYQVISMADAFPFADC
The assay is described as above.

Assay [3] addresses T3, CONSTITUTIVE PHOTOMORPHOGENIC 10 (COP10), BiFC translational fusion (Arabidopsis thaliana) (UniProt Q9LJD7).
T3 sequence: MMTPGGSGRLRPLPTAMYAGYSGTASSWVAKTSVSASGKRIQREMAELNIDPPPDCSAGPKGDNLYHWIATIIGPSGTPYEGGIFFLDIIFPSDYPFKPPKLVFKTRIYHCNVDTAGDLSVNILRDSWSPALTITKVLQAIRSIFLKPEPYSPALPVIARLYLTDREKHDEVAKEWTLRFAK
The experiment in a line: split reporter; BiFC in Nicotiana benthamiana leaf epidermal cells, Agrobacterium co-infiltration with p19, live confocal imaging 3 days (72 hr) after infiltration.

In assay [4] the target is T4, DDB1a, BiFC translational fusion (Arabidopsis thaliana) (UniProt Q9M0V3).
T4 sequence: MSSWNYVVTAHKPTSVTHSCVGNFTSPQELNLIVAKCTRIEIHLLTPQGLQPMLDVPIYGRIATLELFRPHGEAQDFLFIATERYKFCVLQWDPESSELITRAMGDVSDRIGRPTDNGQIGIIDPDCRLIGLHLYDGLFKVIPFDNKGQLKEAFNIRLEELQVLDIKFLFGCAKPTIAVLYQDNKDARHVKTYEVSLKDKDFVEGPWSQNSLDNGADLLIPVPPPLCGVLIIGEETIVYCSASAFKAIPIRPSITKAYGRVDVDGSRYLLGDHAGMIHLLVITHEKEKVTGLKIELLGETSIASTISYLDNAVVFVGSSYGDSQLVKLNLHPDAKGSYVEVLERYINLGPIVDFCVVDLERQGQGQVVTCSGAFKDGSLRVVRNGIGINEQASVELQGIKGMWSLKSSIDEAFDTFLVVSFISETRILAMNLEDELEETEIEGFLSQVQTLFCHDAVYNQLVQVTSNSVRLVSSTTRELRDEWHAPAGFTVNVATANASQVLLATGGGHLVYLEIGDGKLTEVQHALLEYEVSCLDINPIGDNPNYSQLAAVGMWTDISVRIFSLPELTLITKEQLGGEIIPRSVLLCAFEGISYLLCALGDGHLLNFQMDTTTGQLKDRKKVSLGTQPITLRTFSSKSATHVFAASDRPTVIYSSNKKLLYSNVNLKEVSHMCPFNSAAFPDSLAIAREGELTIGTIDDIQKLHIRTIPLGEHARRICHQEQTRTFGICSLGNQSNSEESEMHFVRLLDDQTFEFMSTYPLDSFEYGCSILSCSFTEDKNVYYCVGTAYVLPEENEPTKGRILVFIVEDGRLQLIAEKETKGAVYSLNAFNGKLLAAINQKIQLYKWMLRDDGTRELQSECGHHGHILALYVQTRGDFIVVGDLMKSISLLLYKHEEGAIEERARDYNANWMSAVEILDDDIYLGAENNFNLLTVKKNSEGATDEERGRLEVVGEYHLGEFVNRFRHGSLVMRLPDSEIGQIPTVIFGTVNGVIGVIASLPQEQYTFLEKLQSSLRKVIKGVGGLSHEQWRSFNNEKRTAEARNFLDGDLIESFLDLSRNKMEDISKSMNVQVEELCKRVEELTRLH
The description is as above.

Assay [5] concerns the target T5, ENY2, BiFC translational fusion (Arabidopsis thaliana) (UniProt Q6NQ54).
T5 sequence: T1 sequence
The assay is described as above.

The target in assay [6] is T6, UBP22, BiFC translational fusion (Arabidopsis thaliana) (UniProt Q9LEW0).
T6 sequence: T2 sequence
The description is as above.

B1: SGF11 (AT5G58575), yeast two-hybrid fusion (protein, UniProt Q94BV2 1-181)
chain: MSGAEDNKSSHAQLSSQIFLDLVDSVIADVASECHRVARLGLDRDLDIVEEELRLSVEARAKIADPSNNLETNTKYVVDIFGQTHPPVASEVFNCMNCGRQIVAGRFAPHLEKCMGKGRKARAKTTRSTTAAQNRNARRSPNPRYSPYPNSASENQLASGSPGVAGEDCSNFTVRENVKGD
B1: the binding entry in assay [1] and in assay [2] was “binds” throughout.

B2: SGF11, BiFC translational fusion (protein, UniProt Q94BV2 1-181)
chain: B1 chain
With B2, the binding entry in assay [3] is given as “no binding”; in assay [4] it was “no binding”; in assay [5] it was “binds”; in assay [6], “binds”.
